Measurements as given in the RNAGym collection of RNA variant scans (doi:10.7554/elife.90254).
The source gives no read counts; variants with many changes may rest on few reads.

B1: LINE1-full (parent)
chain: UACGUAGGUGGUUUUCCCCUGAUAGUGCUAAGGGGGCCUGGAAGUUUGGACUGGGCAGAGCUCAACACAGCGUGGCAAAGUGGCUGUGGCUAGACUGCCUCUCUGGAUUCCUCGUCACUCAGCAGGGCAUCUCUGAGAGAAAUGCC

Variants of: B1
Assay: self-cleavage, relative activity (ratio to wild type); higher = more cleavage; in vitro, sequencing; the parent is a self-cleaving ribozyme

| Variant | self-cleavage |
| --- | --- |
| U5A G34A A140G | 0.54 |
| U47C U115C U119C | 0 |
| U23C A67C C103A U109C U115A A136G | 0 |
| G88A A92U U130C | 0 |
| U13C U29C A79G | 1.53 |
| U23C U96C U132C A140G | 0 |
| A43G A78G U115C A117U A136U | 1.45 |
| A65G U81G A136U | 0.05 |
| A22G U45C A121G A136G | 2.04 |
| U14C U62C U87C U96A C110U | 0.19 |
| U81A U112C A142G | 1.72 |
| U26A A77U C90U A107G U109C | 0.04 |
| G27A U85A U96C U130C | 0.06 |
| A42G A94U A142G | 0.28 |
| G32C U47A A50U A59G A77G U109A A121U | 0.17 |
| U20A G48C A107G | 2.55 |
| A65G A77U A138U | 0.17 |
| U5A U29C G41A A42G U100C | 0.48 |
| A30G U45C U47A U52A U87A | 0.18 |
| U15C A57G A64G | 0.57 |
| U47C A67G C84G | 0.03 |
| A6G U39A U52C G54A U112C | 0.57 |
| U39A A50U A64U U130C | 0.23 |
| U47C A57G A78U G125A A141G | 2.21 |

| Variant | self-cleavage |
| --- | --- |
| A94G U108C U130C | 0 |
| A59U U134G C146A | 0.85 |
| U14C U46C U85C | 0 |
| U46G U81A U85C | 0.1 |
| U20C U85C U96A U104C | 0 |
| U13A U15C G83A | 0.37 |
| A42U U62A A77G U102C A117U U143C | 0.03 |
| U13C A50G U81C A117U | 0.92 |
| C61G U81A U104C A136U | 0 |
| A22G U52C A124G | 0 |
| U5C U47C U115C | 0 |
| U14C A78G U134C C145U | 1.96 |
| A57U A94G A129G | 0.37 |
| U13G A94U U132A | 0.3 |
| C3U A50U A69G U87C G127A | 0.11 |
| G53A U85C U87A | 0.05 |
| A22G U39A A43G U73C | 0.33 |
| U47G A69G C76U | 0.53 |
| G34U A42G A121U | 1.64 |
| G34A A92G U100A U132C | 0 |
| U46C U108C A136G | 1.25 |
| U26A U87A U96C | 0.13 |
| A22G U47A A65G | 0.18 |
| G86A U115C A141G U143A | 0.03 |

| Variant | self-cleavage |
| --- | --- |
| U5A A57U U132C | 0.19 |
| U14C A22G G32A U45C U46A A94G | 0 |
| U14C C19U U87G U102G | 0.66 |
| U9C U45C U62C | 0 |
| U13C A77U U102G | 1.24 |
| G4C U45A U62C | 0.08 |
| U23A U39C A117G | 1.8 |
| U14C A30U U87C | 0.43 |
| A6C A67G A140G | 1.38 |
| U9A A65U A138G | 0.26 |
| U29A A79G U87C | 0.57 |
| G21A U23C A42U U81C U100C C131U | 0.24 |
| G74A U109C C118A A129U | 0.79 |
| U29C A31G A43G C113U | 0.56 |
| U20C U47A U87C G127A | 0.17 |
| U5C U9A U14C A43G C61U U134A | 0.21 |
| U14C G35A A78U U96C | 0.1 |
| U26C G105A A140G | 0.84 |
| A31U U52C A69U G82A A136U | 0.06 |
| G7A U39A A77G | 2.97 |
| U46C C71U U96A A142G | 0.03 |
| U46A C68U G114A | 0.1 |
| U9C A129U U134G U143C | 0 |
| G7C U134G C145U | 2.66 |

| Variant | self-cleavage |
| --- | --- |
| U20C U87G U104A | 0.26 |
| A65G G75A U100C | 0.04 |
| U1C C28U G40U A57G A94G U112C | 0 |
| U12G U52C C98U | 0 |
| A42U C51U A94G A140U | 0.25 |
| U29C A77U U102A | 2.07 |
| G36A U73C U112C A136G A138G | 2.15 |
| G11U U15C U81C | 1.02 |
| A67U U115A A141G | 0.09 |
| U26A G36A A142C | 0.95 |
| U1C A6G U39A A59G A78U A107G U109A | 0 |
| U20G A57G U73A | 0.42 |
| U9A U45C A65C U100C U130A | 0 |
| U12G U39A A65G | 0 |
| U12A U39A U130A | 0.84 |
| U12C U85C A94G | 0.66 |
| U52A U85C A140G | 0.26 |
| G4C U73C A78U G126U | 1.82 |
| U5C U47C A138G | 0.51 |
| U46A A50U U87A | 0.03 |
| A94U U112A U132C | 0.37 |
| U9A A65G A67G | 0.26 |
| U46C G97U U100C U119C U132C | 0.06 |
| U5C U45C U81C | 1.15 |

| Variant | self-cleavage |
| --- | --- |
| U14A A43G U100C U112A | 0.4 |
| A30G A65G A79G A140G | 0.38 |
| U5A U132C A141G | 1.24 |
| U47C A124U U134C | 1.28 |
| A65G G70U U104C U115C C123U G125U U130C | 0 |
| A6C G8C A78G | 1.33 |
| U45C U47A A50U U87A U91C U96C | 0 |
| G35U U52A G53A | 1.36 |
| U26C U46C U62C G86A | 0.26 |
| U52A U102A U119A | 1.41 |
| C19A C38U U130C | 0.64 |
| U104A C120U U134C | 0.66 |
| U23C U47A A141G | 1.46 |
| G36A A57G C84A | 0.01 |
| A2G A22G U104C U112C | 1.53 |
| U9C C17U A50G A136G | 1.17 |
| U9C A64G U115A | 0.47 |
| U39A G60A U102A | 0.06 |
| U20C A50U U115C A142G | 1.36 |
| U15C U119C A138G | 1.53 |
| G8A U9C U15C A24U A67C U81A U87A U115C | 0.27 |
| G48C U62G A77G | 0.26 |
| U5A U13C A31U U108C | 0.86 |
| U26C U73A A107G | 2.18 |

| Variant | self-cleavage |
| --- | --- |
| G7U U15C A107G | 2.3 |
| U26C G49U A79G | 0.71 |
| G36A A65U A67G A79G A107G | 0 |
| U62A C76U U85A | 0.05 |
| U26C A78G U102C | 0 |
| A22G U46C A64G U112A | 0.36 |
| G21A A65G C99U A142G | 0.08 |
| A31G U52C A121U U130C | 0 |
| A65U U102C U119C A121C | 0 |
| U12C U14C A117U | 1.15 |
| U62C G89A U130C | 0 |
| U5C U85A A94G | 0.37 |
| U46G C71U U115C U130C | 2.19 |
| U9C U15C C76U | 1.7 |
| U12C U62A A94G U134C | 0 |
| A30G A42U U45C A142U | 0.75 |
| G10C G34A A69G G127A | 0.44 |
| U14C U45G A138U A140U | 1.53 |
| U14A G35A G80A | 1.18 |
| U13C A57U A64G U132C A142G | 0 |
| A65U U130C A136U A141G | 0.06 |
| U52C G75C U96C A142G | 0 |
| C3U A22U A24U G106U | 0.89 |
| U12C G125A A136U | 1.19 |

| Variant | self-cleavage |
| --- | --- |
| U12C A50G A59G A141G | 1.31 |
| U14C U62A A140G U143C | 0.17 |
| A64U A69G U115A | 0.29 |
| U62C U130C A142G | 0.08 |
| U26C U47C A121G | 0.54 |
| U9C U73C A138G | 1.2 |
| U62C C120A A140G | 0.22 |
| A64U A94G C113A | 0.07 |
| U15C U52C U85C | 0.3 |
| U5C A121G G126C | 2.92 |
| A24U C66U U119C | 0.17 |
| A43G C66U U96C | 0.08 |
| A2U U5A U13C A42U U73A A140G | 1.31 |
| U62C A77G U119C A129G | 0 |
| A43G U47A A129G A142G | 0.53 |
| A69G G126A U130A U134C | 0.45 |
| U26C A77U C84U | 0.05 |
| G53C G72A U100C A117C G125U A136G | 1.87 |
| A30G U47C U115C | 2.95 |
| U13C U14C A124G U143A | 0 |
| U5C A59G G72A | 0.2 |
| C3U U134C A142G | 0.95 |
| U20C G33U A42G G72U G106A U143C | 1.33 |
